Measured values as given in a compilation of properties of binary mixtures (doi:10.1021/acs.jced.5b00216).
The densities may have been worked out from excess volumes.

Assay: xn = mol fraction of the nth substance listed
Settings: 100 kPa

CC(C)O + CC(C)NC(C)C
x2 = 0
Settings | mass density [kg/m3]
293.15 K | 785.3
298.15 K | 781.1
303.15 K | 776.8
313.15 K | 768

CC(C)NC(C)C + CC(C)CO
mass density [kg/m3]
Settings | 293.15 K | 298.15 K | 303.15 K | 308.15 K | 313.15 K
x1 = 0.0559 | 799.4 | 795.4 | 791.4 | 787.3 | 783.2
x1 = 0.1015 | 797.3 | 793.2 | 789 | 784.9 | 780.7
x1 = 0.1519 | 794.8 | – | – | 782 | 777.7
x1 = 0.2069 | 791.4 | 787.1 | 782.7 | 778.3 | 773.8
x1 = 0.2516 | 788.4 | 784 | 779.5 | 775 | 770.5
x1 = 0.3055 | – | 779.9 | 775.4 | 770.8 | 766.2
x1 = 0.3944 | 777.1 | 772.4 | 767.7 | 763.1 | –
x1 = 0.4988 | 767.4 | 762.6 | – | 753.1 | 748.3
x1 = 0.6017 | 757.2 | 752.4 | 747.6 | 742.8 | –
x1 = 0.7131 | 745.7 | – | 736.1 | 731.2 | 726.4
x1 = 0.8018 | – | 731.9 | – | 722.3 | 717.4
x1 = 0.865 | 730.1 | 725.3 | 720.5 | 715.6 | 710.7
x1 = 0.9062 | 726.1 | – | 716.4 | 711.5 | 706.6
x1 = 0.9423 | 722.4 | 717.6 | – | 707.8 | 702.9
x1 = 1 | – | – | – | 701.7 | 696.8

CC(C)NC(C)C + CC(C)O
mass density [kg/m3]
Settings | 293.15 K | 298.15 K | 303.15 K | 308.15 K | 313.15 K
x1 = 0.0499 | 784.4 | 780 | – | 771.1 | 766.5
x1 = 0.1033 | 781.7 | – | 772.7 | 768.1 | 763.4
x1 = 0.1405 | 779.5 | 774.9 | – | 765.6 | 760.8
x1 = 0.2062 | 775.6 | – | 766.1 | – | 756.4
x1 = 0.2498 | 772.9 | 768.1 | 763.2 | 758.3 | –
x1 = 0.303 | 769.1 | 764.2 | 759.3 | 754.4 | 749.4
x1 = 0.4121 | 761.1 | 756.2 | – | 746.2 | –
x1 = 0.4955 | 754.7 | – | 744.7 | 739.7 | 734.6
x1 = 0.5984 | 746.7 | 741.7 | – | 731.7 | –
x1 = 0.6982 | 739 | 734.8 | – | 723.9 | 718.7
x1 = 0.7902 | – | – | – | 717.1 | 712
x1 = 0.8632 | – | 721.6 | 716.6 | 711.7 | –
x1 = 0.9067 | 723.3 | 718.4 | 713.5 | – | 703.6
x1 = 0.9459 | 720.4 | 715.6 | 710.7 | 705.7 | 700.8
x1 = 1 | 716.4 | 711.5 | 706.6 | 701.7 | 696.8

CC(C)CO + CC(C)NC(C)C
x2 = 0
Settings | mass density [kg/m3]
293.15 K | 802
298.15 K | 798.1
303.15 K | 794.2
308.15 K | 790.2
313.15 K | 786.2

CCCCO + CC(C)NC(C)C
x2 = 0
Settings | mass density [kg/m3]
303.15 K | 802.1
308.15 K | 798.2

CC(C)NC(C)C + CCCCO
mass density [kg/m3]
Settings | 293.15 K | 298.15 K | 303.15 K | 308.15 K | 313.15 K
x1 = 0.0499 | 807.1 | 803.1 | 799.2 | 795.2 | 791.1
x1 = 0.1095 | 804 | 799.9 | 795.8 | 791.7 | 787.5
x1 = 0.1542 | 801.2 | 797 | 792.8 | 788.6 | 784.4
x1 = 0.2062 | 797.7 | 793.4 | 789.1 | 784.8 | 780.4
x1 = 0.25 | 794.5 | 790.1 | 785.7 | 781.3 | –
x1 = 0.2969 | 790.8 | 786.4 | 781.9 | 777.4 | 772.9
x1 = 0.4059 | 780.7 | 776.1 | 771.5 | 766.9 | –
x1 = 0.5062 | – | 765.9 | 761.2 | 756.5 | 751.7
x1 = 0.6009 | 760.5 | 755.7 | 751 | – | 741.4
x1 = 0.7043 | 749.2 | 744.4 | 739.6 | 734.8 | 730
x1 = 0.8059 | 738.2 | 733.4 | 728.6 | 723.8 | 718.9
x1 = 0.8543 | 732.8 | 728 | 723.2 | 718.3 | 713.4
x1 = 0.8987 | – | 723 | 718.2 | 713.3 | 708.4
x1 = 0.9489 | 722.5 | – | 712.8 | 707.9 | 703
x1 = 1 | 716.4 | – | 706.6 | 701.7 | 696.8
